Measurements taken from PubChem BioAssay AID1768 (National Center for Advancing Translational Sciences (NCATS), 2009).
Hit rate of the full screen: of about 270,000 compounds, about 620 (0.23%) were called active. The inconclusive results got no clear call from the source; some entries with a clear call stand among them for comparison. Calls come from the whole dose curve; as a rule, active = well fitted inhibition curve with a large enough effect in the polarisation, with a control signal flat (not every such curve was filed as active); inconclusive = small, poorly fitted or top-dose-only effect, or effect the other way, or a change in a side signal; inactive = no such curve, though single readings can be large or run the other way; the % refers to the polarisation. Potencies beside an inconclusive call are fits to weak or partial responses and may not hold up. A note “side channel” means that the fit belongs to a control or component signal, not to the main read-out.

What follows are compounds tested against Menin (Homo sapiens) (UniProt O00255) (assay: qHTS Assay for Inhibitors Targeting the Menin-MLL Interaction in MLL Related Leukemias: Competition With Texas Red Labeled MLL-derived Mutant Peptide). Details: fluorescence polarization; FP activity change, negative = inhibition: at 61.6 µM (top of the series).
Potency is the fitted concentration of half-maximal effect; tags give direction and shape of the fitted curve or compound fluorescence and quenching.
Throughout, for FP activity change, negative = inhibition: % of control where 0% means no effect.

UniProt O00255, sequence (O00255 whole entry, looked up): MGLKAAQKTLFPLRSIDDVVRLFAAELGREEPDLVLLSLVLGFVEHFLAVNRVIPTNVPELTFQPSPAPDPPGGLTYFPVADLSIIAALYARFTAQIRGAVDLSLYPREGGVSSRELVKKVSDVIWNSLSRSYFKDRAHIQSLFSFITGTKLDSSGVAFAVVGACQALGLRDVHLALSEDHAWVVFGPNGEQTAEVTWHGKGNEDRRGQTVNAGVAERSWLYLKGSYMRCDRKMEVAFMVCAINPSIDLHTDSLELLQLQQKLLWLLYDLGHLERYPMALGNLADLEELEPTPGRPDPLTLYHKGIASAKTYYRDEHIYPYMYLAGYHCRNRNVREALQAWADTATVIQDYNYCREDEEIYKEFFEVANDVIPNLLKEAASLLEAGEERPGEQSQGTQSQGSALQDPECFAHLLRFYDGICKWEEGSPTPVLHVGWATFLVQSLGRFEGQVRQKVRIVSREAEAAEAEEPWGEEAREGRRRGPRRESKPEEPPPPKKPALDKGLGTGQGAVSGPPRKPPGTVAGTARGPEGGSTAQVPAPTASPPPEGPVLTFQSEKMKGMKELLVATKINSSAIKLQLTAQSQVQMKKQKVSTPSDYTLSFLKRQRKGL

Potency, inconclusive:
CCCC(=O)N(CCN1CCOCC1)c1nc2c(C)ccc(C)c2s1 12.6 µM [fluorescent, side channel, partial curve]
COCCCN1C(=O)c2ccc(C(=O)Nc3ccccc3Cl)cc2C1=O 3.98 µM [inhibitor, full curve]
CN(C)c1ccc(NC(=O)Nc2cccc(Cl)c2)cc1 17.8 µM [quencher, side channel, partial curve]
O=C(COC(=O)c1ccc(-c2ccc([N+](=O)[O-])cc2)o1)NC(=O)NC1CCCCC1 22.4 µM [quencher, side channel, partial curve]
Cc1cc(C)c(O)c(-c2cc(C(=O)NCc3ccccc3)[nH]n2)c1 25.1 µM [quencher, side channel, single point]
CCc1nnc(NC(=O)c2ccc(S(=O)(=O)N3CCCc4ccccc43)cc2)o1 15.8 µM [quencher, side channel, partial curve]
O=C(Nc1ccc(Cl)cc1)C1C2CCC3C(CCC21)C3(Cl)Cl (stereo not given) 39.8 µM [inhibitor, partial curve, poor fit]
CCOc1ccc(-c2[nH]nc3c2C(c2ccc(O)cc2)C(C#N)=C(N)O3)cc1 (stereo not given) 31.6 µM [quencher, side channel, single point]
COc1ccc(C2C(C(=O)c3ccccc3)N3c4ccccc4C=CC3C2[N+](=O)[O-])cc1 (stereo not given) 6.31 µM [fluorescent, side channel, partial curve]
C=C(COC)C1=CCC(C(=O)OC)(C(=O)OC)[C@@H](C[N+](=O)[O-])c2ccccc21 44.7 µM [fluorescent, side channel, partial curve]
CCNS(=O)(=O)c1ccc(C(=O)OCc2cc(=O)oc3cc(OC)ccc23)cc1 39.8 µM [fluorescent, side channel, single point]
N/C(=N\OC(=O)C12CC3CC(CC(C3)C1)C2)c1cccnc1 12.6 µM [inhibitor, partial curve, poor fit]
CC(C)(C)NC(=O)COc1ccc(CNc2ccc3[nH]c(=O)[nH]c3c2)cc1 20 µM [inhibitor, single point]
Cc1cc2oc(=O)cc(CN3CCN(S(=O)(=O)/C=C/c4ccccc4)CC3)c2cc1C 6.31 µM [fluorescent, side channel, full curve, poor fit]
CN(C)S(=O)(=O)Oc1cccc(C(=O)Nc2ccc(Cl)c(Cl)c2)c1 8.91 µM [quencher, side channel, partial curve]
O=C(COC(=O)[C@H](Cc1c[nH]c2ccccc12)NC(=O)c1ccc(Cl)cc1)Nc1ccc2c(c1)OCO2 7.08 µM [quencher, side channel, full curve]
CCOC(=O)c1ccc(NC(=O)c2cc3c(C)nn(-c4ccccc4Cl)c3s2)s1 2.24 µM [quencher, side channel, full curve, poor fit]
COc1cccc2c1C(=O)c1c(O)c3c(c(O)c1C2=O)C[C@@](O)(C(=O)CO)C[C@@H]3O[C@H]1C[C@H](N)[C@H](O)[C@H](C)O1 3.98 µM [fluorescent, side channel, full curve]
Cc1cc(C)cc(NC(=S)N2CCC(NC(=O)c3ccc(F)cc3)CC2)c1 35.5 µM [fluorescent, side channel, single point]
CCN(CC(O)Cn1c2ccccc2c2ccccc21)S(=O)(=O)c1ccc(F)cc1 (stereo not given) 25.1 µM [quencher, side channel, partial curve]
O=C(CCN1C(=O)/C(=C/c2ccc3c(c2)OCO3)SC1=S)Nc1cccc(C(=O)O)c1 39.8 µM [quencher, side channel, single point]
COc1cc2c(cc1OC)C1O[C@](CCCCN3C(=O)c4ccccc4C3=O)(C2)Oc2c1c(=O)oc1ccc(F)cc21 5.01 µM [quencher, side channel, single point]
CC1=C(C(=O)OC(C)C)C(C)NC(=O)N1 (stereo not given) 5.62 µM [quencher, side channel, single point]
COc1ccc(/C=N/NC(=O)Cc2csc(Nc3cccc(C(F)(F)F)c3)n2)cc1C 39.8 µM [inhibitor, single point]
Cc1nc(Oc2ccc(Cl)cc2)c2oc3ccccc3c2n1 39.8 µM [fluorescent, side channel, single point]
O=C(Cc1ccc(Cl)cc1)Nc1ncc([N+](=O)[O-])s1 25.1 µM [quencher, partial curve]
CCC1CN(C(=O)Nc2cccc(C)c2)c2cc(C)ccc2O1 (stereo not given) 14.1 µM [inhibitor, partial curve]
COc1cc(-c2oc3cc(O)ccc3c(=O)c2O)ccc1O 14.1 µM [quencher, side channel, partial curve]
COc1ccc(C2N(C(=O)CN3CCCC3)CCCN2S(=O)(=O)c2ccccc2)cc1 (stereo not given) 0.631 µM [inhibitor, full curve, poor fit]
CC(C)C(=O)Nc1ccc2c(c1)nc(CCN1CCCCC1)n2C 17.8 µM [inhibitor, single point]
OCCOCCN1CCN(C2=Nc3ccccc3Sc3ccccc32)CC1 17.8 µM [fluorescent, side channel, partial curve]
Cc1ccc(S(=O)(=O)N2CCOCC2)cc1NC(=O)CN1CCC(Cc2ccccc2)CC1 3.98 µM [fluorescent, side channel, full curve]
O=C(c1cccc(-c2nnc(-c3ccccc3)o2)c1)N1CCCCC1 0.708 µM [inhibitor, full curve]
N#CCCn1cc(C(=O)Nc2ccc([N+](=O)[O-])cc2)c(-c2cccs2)n1 14.1 µM [quencher, side channel, partial curve]
O=C(Nc1nccs1)c1ccc(-c2ccc(F)cc2)o1 12.6 µM [quencher, side channel, partial curve]
CCOC(=O)N1CCN(c2nnc(-c3ccc(C)cc3)c3ccccc23)CC1 2.82 µM [fluorescent, side channel, full curve]
COC(=O)[C@@H]1C[C@@]2(O)[C@@H](O)[C@@H](O)[C@@H](O)C[C@H]2N1CC1CC1 0.891 µM [quencher, side channel, full curve, poor fit]
CC1C/C(=C/c2ccccn2)C(=O)/C(=C/c2ccccn2)C1 (stereo not given) 39.8 µM [inhibitor, partial curve]
Cc1[nH]c2ccccc2c1N=Nc1ccc(F)cc1 10 µM [quencher, side channel, partial curve]
O=C1C(NS(=O)(=O)c2cccs2)=C(N2CCN(c3cccc(C(F)(F)F)c3)CC2)C(=O)c2ccccc21 25.1 µM [quencher, side channel, single point]
Cc1ccc(Nc2nc(CSc3nnc(-c4cccs4)o3)cs2)cc1 35.5 µM [quencher, side channel, partial curve]
O=C(O)c1cccc(-n2cccc2/C=C2\NC(=O)N(Cc3ccc(F)cc3)C2=O)c1 25.1 µM [quencher, side channel, partial curve]
Cc1cccc(NC(=O)c2cc(-c3cc(C)c(C)cc3O)n[nH]2)c1 15.8 µM [fluorescent, side channel, partial curve, poor fit]
O=C(Nc1cccc(C(F)(F)F)c1)Nc1cc(Cl)ccc1C(=O)O 3.55 µM [quencher, side channel, full curve]

FP activity change, negative = inhibition, inactive:
O=C1CCN(CCc2ccccc2)CCN1[C@H](COc1ccccc1)c1ccccc1 0.665%
CCC1OC(=O)CC(O)C(C)[C@@H](O[C@@H]2OC(C)[C@H](O[C@@H]3C[C@@](C)(O)C(O)C(C)O3)C(N(C)C)C2O)[C@H](CC=O)CC(C)C(=O)/C=C/C(C)=C/[C@@H]1COC1OC(C)C(O)C(OC)[C@@H]1OC (stereo not given in full) 1.32%
CC(C)(C)c1cc(NC(=O)CSc2nnc(N)s2)n(-c2ccccc2)n1 21.9%
COCCn1nnnc1C(C(C)C)N(Cc1ccccc1)Cc1cc2cc(OC)ccc2[nH]c1=O (stereo not given) 2.94%
O=C1C(=Cc2cccs2)C(=O)c2ccccc21 10.4%
COc1cc(OC)cc(-c2nnc3n2N=C(c2ccccc2OC)CS3)c1 15.3%
COc1cc(/C=C(/NC(=O)c2ccccc2Cl)C(=O)O)cc(OC)c1OC -0.507%
C=C1c2cc(OC)ccc2NC(=O)N1CC 26%
COc1ccc(OC/C(O)=C(\C#N)c2nc3ccccc3[nH]2)cc1 14.2%
COc1cc(C(c2nnnn2C(C)(C)C)N2CCN(c3nc4ccccc4s3)CC2)ccc1O (stereo not given) 10.8%
C=CCN1c2ccccc2[C@]23C[C@@H](C(=O)OC)N(S(=O)(=O)c4ccc(Br)cc4)C2=NC(C(=O)OC)=C(C(=O)OC)[C@H]13 -11.7% [at 11.7 µM]
